# Results published in PubChem BioAssay AID686971 (National Center for Advancing Translational Sciences (NCATS), 2013).
# Out of some 360,000 compounds screened, about 7,500 (2.1%) were called active. This list was built around the results that the source calls inconclusive (neither active nor inactive); the mix of calls is not that of the screen. Calls come from the whole dose curve; as a rule, active = well fitted cell-killing curve with a large enough effect; inconclusive = small, poorly fitted or top-dose-only effect, or effect the other way, or another doubt; inactive = no such curve, though single readings can be large or run the other way. Potencies of inconclusive entries are left out as doubtful fits.
# Experiment: qHTS for induction of synthetic lethality in tumor cells producing 2HG: qHTS for the HT-1080-IDH1KD cell line;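 for activity, negative = toxicity: 0% = DMSO wells and -100% = cell-free medium wells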
# Details: HT-1080 IDH1 knockdown viability, ATP luminescence, 48 h; activity, negative = toxicity: at 46.1 µM (top of the series) unless noted
# How it was run: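 In this qHTS, HT-1080 cells depleted of IDH1 are exposed for 48 h at 37 °C to compound titrations. Toxicity is scored from CellTiter-Glo luminescence, with DMSO as full viability and medium alone as none.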
# Potency is the fitted concentration of half-maximal effect; tags give direction and shape of the fitted curve.
SMILES,Potency,"activity, negative = toxicity"
CCc1ccccc1N(C)C(=O)CCc1nc(-c2ccc(C)cc2)no1,inactive,
CCc1ccc(/C=C/C(=O)C2C(=O)c3ccccc3C2=O)cc1,"inconclusive [cytotoxic, single point]",
C/C(=N\Nc1ccc(S(=O)(=O)N2CCCCC2)cn1)c1ccc(O)cc1,inactive,
CCCCn1c(SCC(=O)NCc2ccco2)nc2ccc(N3CCOCC3)cc2c1=O,"inconclusive [cytotoxic, single point]",
O=C(C1=C[C@H](C2CCCCC2)C[C@H](OCc2ccc(CO)cc2)O1)N1CCN(Cc2ccccc2)CC1,"inconclusive [cytotoxic, single point]",
O=C(NNC(=O)c1cc2cc(Br)ccc2oc1=O)c1ccc(O)cc1O,active: 1.84 µM,
O=C(Nc1ccccc1Cl)c1ccccc1Oc1ccc(C(F)(F)F)cc1[N+](=O)[O-],"inconclusive [cytotoxic, single point]",
CC(=O)c1c(C)[nH]c(C(=O)OCCCCN2C(=O)c3ccccc3C2=O)c1C,"inconclusive [cytotoxic, partial curve]",
Cc1cc(Nc2ccccc2C(=O)O)n(-c2cccc(Cl)c2)n1,,inconclusive: -32.8% [cytotoxic]
CC1CN(c2ccc([N+](=O)[O-])c(NCCOc3ccc(Cl)cc3)c2)CC(C)N1 (configuration not stated),"inconclusive [cytotoxic, single point]",
O=C(Nc1cccnc1)c1ccc(COc2cc(Cl)ccc2Cl)o1,active: 23.1 µM,
COc1cc(OC)nc(-n2ncc(Br)c(Br)c2=O)n1,active: 1.64 µM,
Clc1ccc2c(c1)c1cc(Cl)ccc1n2CN1CCOCC1,"inconclusive [cytotoxic, single point]",
CCOC(=O)CN1C(=O)C(Sc2n[nH]c(-c3cccc(C)c3)n2)CCc2ccccc21 (configuration not stated),"inconclusive [cytotoxic, single point]",
COc1cccc(OC)c1C(=O)NCCN1CCN(C(=O)c2c(OC)cccc2OC)CC1,inactive,
CC(=O)NC(=S)Nc1ccc(S(=O)(=O)N(C)Cc2ccccc2)cc1,"inconclusive [cytotoxic, single point]",
O=C(NC1CCCCC1)C1c2ccccc2OCC(=O)N1CCc1c[nH]c2ccccc12 (configuration not stated),active: 25.9 µM,
CCc1ccc(-n2nc3ccc(NC(=O)c4ccc5c(c4)OCO5)cc3n2)cc1,"inconclusive [cytotoxic, single point]",
CC(=O)N1CCN(c2cc(N3CCCC3)c(F)cc2[N+](=O)[O-])CC1,inactive,
C=C(C)[C@@H]1CC=C(CN2CCN(Cc3ccccc3)CC2)CC1,inactive,
CC(NCc1ccc(-c2ccccc2)cc1)C(O)c1ccccc1 (configuration not stated),active: 14.6 µM,
COc1ccc(C(=O)C2CCCN(Cc3c[nH]c4ccccc34)C2)c(OC)c1 (configuration not stated),"inconclusive [cytotoxic, partial curve]",
CC(=O)Nc1ccc(NC(=O)C(C)OC(=O)/C=C/c2cn(-c3ccccc3)nc2-c2cccnc2)cc1 (configuration not stated),"inconclusive [cytotoxic, single point]",
Cc1ccc(C(=O)Nc2ccc(S(=O)(=O)Nc3cnc4ccccc4n3)cc2)cc1,inactive,

SMILES,Potency,"activity, negative = toxicity"
CC1(C(=O)Nc2ccc(Cl)c(Cl)c2)CCN1C(=O)Cc1cccc2ccccc12 (configuration not stated),"inconclusive [cytotoxic, single point]",
CCCCNC(=O)c1onc(CCl)c1C(=O)OC,"inconclusive [cytotoxic, single point]",
Nc1nc(=O)n(C2OC(CO)C(O)C2O)cc1F (configuration not stated),inactive,
CC1OC(Oc2ccc3ccc(=O)oc3c2-c2c(O)ccc3cc(Oc4ccc5ccc(=O)oc5c4)c(=O)oc23)C(O)C(O)C1O (configuration not stated),inactive,
O=C(NCCCn1ccnc1)c1ccc(NS(=O)(=O)c2ccc(Cl)c(Cl)c2)cc1,"inconclusive [cytotoxic, single point]",
CCN(CC)C(=O)Cn1cc(C(=O)C(=O)Nc2ccc3c(c2)OCCO3)c2ccccc21,"inconclusive [cytotoxic, single point]",
CC1CCCC(C)N1C(=O)COC(=O)c1c[nH]c2ccccc12 (configuration not stated),inactive,
Cc1ccc(C)c(N2CCN(C(=O)Nc3ccc4c(c3)N(C)C(=O)CS4)CC2)c1,"inconclusive [cytotoxic, single point]",
CC(=O)Nc1cccc(-c2ccnc3c2CC(C)(C(=O)Nc2ccc4c(c2)OCO4)O3)c1 (configuration not stated),"inconclusive [cytotoxic, full curve, poor fit]",
CCC1COCCS(=O)(=O)N1Cc1cccc(C(F)(F)F)c1 (configuration not stated),inactive,
Cc1ccc(C)c(C(=O)COc2ccc(C)nc2[N+](=O)[O-])c1,"inconclusive [cytotoxic, single point]",
Oc1c(C(c2ccccn2)N2CCC(Cc3ccccc3)CC2)cc(Cl)c2cccnc12 (configuration not stated),active: 20.6 µM,
CC(C)Cn1c(SCC(=O)N2CCCCC2)nc2ccccc2c1=O,inactive,
O/N=C(\Cn1ccnc1)c1ccccc1,inactive,
Cc1ccc(NC(=O)c2cccnc2C(=O)O)nc1,inactive,
O=c1c2ccccc2nnn1CSc1ncnc2ccccc12,inactive,
CCOC(=O)C1=C[C@@H](C(C)(C)C)N(S(=O)(=O)c2ccc(C)cc2)[C@H]1c1ccc(C)cc1,active: 13 µM,
N#CC(C(=O)Nc1cccc(Cl)c1)=C1Nc2ccccc2N1,"inconclusive [cytotoxic, single point]",
COc1ccccc1C(=O)Nc1ccon1,"inconclusive [rising, full curve]",
CCCCCc1c(-c2ccccc2OC)ncn1CCc1ccccc1OC,active: 16.4 µM,
O=C(NCCCCNC(=O)c1ccc(Cl)s1)c1ccc(Cl)s1,inactive,
O=C1C=C(N2CCCCC2)c2ccccc2C1=O,active: 5.8 µM,
CC(C)C[C@H](NC(=O)c1nc[nH]c1C(=O)NCc1ccc(CNC(=O)OC(C)(C)C)cc1)C(=O)OC(C)(C)C,"inconclusive [cytotoxic, single point]",
